The values below come from PMC6212790.

Some of the results follow. At the low end of the ranking the order means little.

The experiment has as its target T1, GST-Rok (full length) (UniProt O34857).
T1 sequence: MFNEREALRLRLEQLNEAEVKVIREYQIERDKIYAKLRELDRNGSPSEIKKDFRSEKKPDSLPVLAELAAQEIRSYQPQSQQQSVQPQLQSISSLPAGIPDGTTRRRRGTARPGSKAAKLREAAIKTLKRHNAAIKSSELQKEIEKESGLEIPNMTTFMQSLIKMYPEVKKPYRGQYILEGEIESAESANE
Briefly: protein binding microarray.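 Note: rank score from −0.5 (least bound) to 0.5 (best bound).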 Conditions: Rok is a gene silencer of Bacillus subtilis; high values mean tight binding; most listed sequences are background and not binding sites; double strand, one strand shown.
Sequence TAGGGGAA displayed a binding signal of -0.219 E-score.
The sequence ATCTCCCG yielded a binding signal of -0.0534 E-score.
The value for AAGGTGAC was -0.231 E-score.
Consider CGTACCGA, for which the binding signal is -0.0515 E-score.
The sequence ACACGCCC returned a binding signal of -0.241 E-score.
Sequence GCCAAGGA showed a binding signal of -0.214 E-score.
GCATCAGA: the binding signal was -0.134 E-score.
In the case of AATAAGGA, the binding signal is -0.0412 E-score.
Then GGTGATTA, with -0.0256 E-score.
In turn, CACCCCGA showed a binding signal of -0.0384 E-score.
Then ATCAACGG, with 0.216 E-score.
For the sequence CATCCTAA, the binding signal amounted to 0.0114 E-score.
Then CGCAACTA, with 0.323 E-score; and AGTCTGGA, with 0.0388 E-score.
In the case of TCATCCAA, the binding signal was -0.0745 E-score.
ACGAGAGG displayed a binding signal of -0.3 E-score.
Then AACCTTAA, with -0.105 E-score; and ACGCTGCA, with 0.0028 E-score.
Sequence GCGCGGGA gave a binding signal of -0.269 E-score.
Then GCATAAGA, with 0.145 E-score; and GATTACAC, with -0.099 E-score.
The value for TCGTCAGA was -0.0975 E-score; that for TGACGGCA was -0.309 E-score.
Then TCCAGTCA, with -0.0213 E-score; and GACGATCC, with -0.102 E-score.
Take GTCTTCGA: the binding signal is -0.0312 E-score.
AGCTATAT returned a binding signal of 0.337 E-score.
The value for ACGCACGA was -0.0729 E-score.
Turning to GTGGGGAA, the binding signal was -0.313 E-score.
The value for ATCGCAGC was 0.0136 E-score; that for CAGAGGCC was -0.321 E-score.
With ACGGACGA, the binding signal was -0.0826 E-score.
Regarding ACCTGTTC, the binding signal is -0.0419 E-score.
Regarding ACTTAGGC, the binding signal is -0.0335 E-score.
For ATGATGAG, the binding signal stood at 0.0727 E-score.
GTCATTCA: the binding signal was -0.00959 E-score.
Consider ACCTTTTC, for which the binding signal is -0.0938 E-score.
The value for CGGAGTAG was 0.0653 E-score.
The value for GCATCGGC was -0.173 E-score; that for GCTTATAC was 0.226 E-score; that for CCTGAGAA was -0.197 E-score.
Then GGCGGACA, with -0.216 E-score; and CATTAGTC, with 0.0943 E-score.
Take CCGATGAC: the binding signal was -0.254 E-score.
The value for TAATCAAA was 0.0631 E-score; that for CCCTAGAC was -0.327 E-score.
The value for AAGTATAG was 0.127 E-score; that for CGCCAAGC was -0.262 E-score; that for CTAAACGA was -0.072 E-score.
ACCCACAT yielded a binding signal of 0.0678 E-score.
Sequence TGACCAAA showed a binding signal of 0.0772 E-score.
Then TGAAGGCA, with -0.0995 E-score; and CGTTCACC, with -0.171 E-score.
As to CCGTCATC, the binding signal was -0.0898 E-score.
Turning to AGTCTCCG, the binding signal was -0.191 E-score.
The value for CAATGTGG was -0.0719 E-score; that for CCCTTAGC was -0.222 E-score.
Then CGTTGACA, with -0.146 E-score.
Turning to ATCTGCTG, the binding signal is -0.0203 E-score.
AACACCTC gave a binding signal of 0.0365 E-score.
The sequence ACGCTAGC displayed a binding signal of 0.182 E-score.
The value for GGGCGAAA was -0.113 E-score.
The value for AATATATG was 0.33 E-score; that for CAGCCATG was -0.108 E-score.
The value for CGGAAGCA was -0.272 E-score; that for GAGCAAAC was -0.12 E-score.
Consider AACAGATA, for which the binding signal worked out at 0.168 E-score.
The value for TCGAACAA was -0.0601 E-score.
Then CTTCTACC, with 0.327 E-score; and CCGGTGAG, with -0.258 E-score; and TATTCCCA, with 0.0492 E-score.
Then CGTGCGAA, with -0.119 E-score; and GATCGTTA, with 0.00221 E-score; and CGGGGGAC, with -0.365 E-score.
For AACGATCC, the binding signal came to 0.0726 E-score.
As for GCGGTAGA, the binding signal came out at 0.337 E-score.
The value for ATACCCAT was 0.297 E-score; that for ACAGTAAT was 0.244 E-score; that for GCTATAGA was 0.151 E-score.
AAAACCCC had a binding signal of -0.355 E-score.
The value for CCTAGAAG was -0.29 E-score; that for AGTCTCAA was -0.0576 E-score; that for GGGAGCGA was -0.389 E-score.
ACGGCGAC returned a binding signal of -0.305 E-score.
Then ACAACCTA, with 0.0459 E-score; and ACGGGCCC, with -0.31 E-score; and AGGGCTAT, with 0.0264 E-score.
The sequence AGCTAGAG returned a binding signal of -0.0103 E-score.
ACCAGCGC showed a binding signal of -0.218 E-score.
Then CACGAGAG, with -0.184 E-score.
The value for GGGGCTCA was -0.4 E-score.
Then CCTACTAG, with 0.0992 E-score; and AGGTCTCA, with -0.0826 E-score.
GTCTATCA displayed a binding signal of -0.00992 E-score.
The value for CTCCGTCA was -0.143 E-score; that for GGAGTTAC was 0.0656 E-score.
The value for GTAGGGTA was 0.256 E-score; that for AAATCTAT was 0.315 E-score.
The value for ATGTCTGC was 0.011 E-score; that for CGGAGGGA was -0.354 E-score.
With ATGAGTTC, the binding signal was -0.0711 E-score.
The sequence GCTCTTCC showed a binding signal of -0.304 E-score.
Sequence AGTATCTA displayed a binding signal of 0.343 E-score.
Consider ATCGTCCA, for which the binding signal is -0.0609 E-score.
Regarding CCGAGAAA, the binding signal came out at 0.0756 E-score.
On to CGACTGGA, for which the binding signal is -0.0992 E-score.
The value for CATAACTC was 0.184 E-score.
The value for CATCTTCC was -0.128 E-score; that for TAGAGAGA was -0.0178 E-score.
Take CATGAAGC: the binding signal is -0.206 E-score.
Then CAACCGCA, with -0.0677 E-score; and AAACGACC, with -0.254 E-score; and GGAGGAAC, with -0.0861 E-score.
The value for AAACCGGG was -0.153 E-score; that for ACGGGATA was 0.0997 E-score.
The value for TAATGTGA was 0.102 E-score; that for CCACTGGG was -0.243 E-score.
Sequence TCTTCTAA had a binding signal of 0.0283 E-score.
In turn, ACTCCCAC came in with a binding signal of -0.205 E-score.
The value for ACTATCGG was 0.168 E-score; that for CAAACCCC was -0.313 E-score.
The value for CTGCTCAC was -0.0532 E-score; that for TACGCGTA was 0.187 E-score; that for CACAAGTA was 0.183 E-score.
Then TCACCTGA, with -0.0909 E-score; and ATAAGCTA, with 0.178 E-score.
The sequence CTCTTAAG gave a binding signal of -0.225 E-score.
Then GCTGACTA, with 0.129 E-score; and GAAGGCGC, with -0.104 E-score; and CGTTGCCC, with -0.327 E-score.
The value for ACATTCGG was 0.0153 E-score.
Then CAGAACAG, with 0.0652 E-score.
Sequence CTAATTGA yielded a binding signal of 0.0109 E-score.
Then ATTCGACG, with 0.17 E-score; and CAGCAAGG, with -0.25 E-score.
The value for GGCACGTA was 0.0678 E-score; that for GCGGGTAC was -0.0451 E-score; that for ACTTGTCT was -0.00713 E-score.
As to AGTGATGC, the binding signal was -0.0437 E-score.
The sequence CTTTAGTC registered a binding signal of -0.228 E-score.
AGAAATAA gave a binding signal of 0.328 E-score.
The sequence CATTTGGG displayed a binding signal of 0.0352 E-score.
The value for GACATACC was -0.0287 E-score.
In the case of CAAGCTCG, the binding signal was -0.161 E-score.
GAACCCTA gave a binding signal of -0.0592 E-score.
Sequence GCGTGGAC gave a binding signal of -0.209 E-score.
ATGTGGCA: the binding signal was -0.0115 E-score.
Then AGCTGGCC, with -0.207 E-score; and CGGACGAC, with -0.205 E-score; and TGCGCACA, with 0.0842 E-score.
Sequence AATCTTTG returned a binding signal of -0.0102 E-score.
Then CTTTTGGC, with -0.127 E-score; and CCTTAACG, with -0.0995 E-score.
Then GGGGATCA, with -0.296 E-score.
Then CCGACCAA, with -0.12 E-score; and GATTGATA, with 0.23 E-score; and CAAAAGAA, with -0.298 E-score.
AACGAGAC came in with a binding signal of 0.117 E-score.
Then AGAAGCCA, with -0.182 E-score; and CGTACAGC, with -0.0495 E-score.
In turn, CCTGTCAG returned a binding signal of -0.202 E-score.
Then AGTTGCGG, with 0.125 E-score; and AGAGCCTG, with -0.136 E-score; and ACGCGGAG, with 0.0782 E-score.
Then CGTACTCA, with 0.0155 E-score; and CGCATTGC, with -0.0682 E-score; and CTCGTCGA, with -0.102 E-score.
Then CAACCGTG, with 0.0793 E-score; and AAGATGCA, with 0.0603 E-score; and GCGGCATA, with -0.0947 E-score.
On to ACATGGGA, for which the binding signal was -0.0271 E-score.
Then CCCTGCCA, with -0.272 E-score.
For ACTGTTCG, the binding signal amounted to 0.158 E-score.
The value for CGTATTTC was 0.108 E-score; that for ATTGTATG was 0.26 E-score.
As for AGGGGGGC, the binding signal was -0.495 E-score.
The value for ACCAAGCG was -0.165 E-score; that for CAGGGCCA was -0.125 E-score; that for CGCCGAAA was -0.23 E-score.
The value for ACAAAGGC was -0.12 E-score; that for ACCTGTCG was -0.112 E-score; that for ATACCAGC was 0.234 E-score.
The value for ATGCGGAG was -0.23 E-score; that for ACAGCCCT was -0.106 E-score; that for AACCTAGC was -0.105 E-score.
In turn, CAGCATAA came in with a binding signal of 0.126 E-score.
Then CCCCAGGC, with -0.228 E-score; and CTTAAGAC, with -0.107 E-score.
Then TAGGATCA, with -0.000121 E-score; and ATAGTTAC, with 0.349 E-score; and CGGAAAAG, with 0.012 E-score.
Regarding GCAACTGA, the binding signal is -0.0401 E-score.
The value for GTTCGAAA was -0.0356 E-score; that for GCCCCGCA was -0.257 E-score.
The value for GAGATGGC was -0.167 E-score; that for AACAATTG was 0.136 E-score; that for CTTAGTTC was 0.0779 E-score.
Sequence TGAAGCAA showed a binding signal of -0.166 E-score.
The value for TAGAAGGA was 0.22 E-score.
CTTGCCGC showed a binding signal of -0.143 E-score.
Then GCAGTGGA, with -0.172 E-score; and CTCCCGGA, with -0.199 E-score.
TGTTAGAA returned a binding signal of 0.113 E-score.
As for CGGCAACG, the binding signal is -0.16 E-score.
TTATAAAA: the binding signal was determined as 0.236 E-score.
As to ACGGCCTC, the binding signal is -0.321 E-score.
The sequence CCCGACGC came in with a binding signal of -0.28 E-score.
As for TAGGGATA, the binding signal came to 0.1 E-score.
The value for GTAACACA was 0.152 E-score; that for GTTCAATA was 0.201 E-score.
As to CTTTAAAA, the binding signal is -0.0254 E-score.
The value for CCTAGAAA was 0.0461 E-score; that for TATTAATA was 0.368 E-score; that for CCGGTTAG was -0.0832 E-score.
In the case of TAAGTCCA, the binding signal turned out to be 0.0283 E-score.
For AACATGAA, the binding signal was determined as 0.163 E-score.
CAAATATC returned a binding signal of 0.285 E-score.
The value for ACGACGGA was -0.0323 E-score; that for CGAGGCGA was -0.165 E-score.
